# Measurements taken from the supplement of paper PMC8728848.
# Some of the results follow.
# Columns and labels:
# Experiment in all cases: glycan array binding signal (z-score within array); higher = stronger binding
# Conditions in all cases: glycan notation: IUPAC condensed, linker removed
# [1] = molecular target: Gal(b1-4)GlcNAc(b1-6)GalNAc
# Summary of the method: (§1)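 The binding signal is a Z-score computed within each array and averaged over linkers. Arrays of the same protein sequence at different concentrations or buffers were also averaged together. Data originate from 3228 arrays in the Consortium for Functional Glycomics database, kept only where the protein sequence was available.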
# [2] = molecular target: Gal(b1-4)GlcNAc(b1-6)[Gal(b1-3)]GalNAc
# Summary of the method: as §1
# [3] = molecular target: Gal(b1-4)GlcNAc(b1-6)[Gal(b1-4)GlcNAc(b1-3)]GalNAc
# Summary of the method: as §1
# Gal(b1-4)GlcNAc6P = molecular target: Gal(b1-4)GlcNAc6P
# Summary of the method: as §1
# Gal(b1-6)Gal = molecular target: Gal(b1-6)Gal
# Summary of the method: as §1
# Gal3S(b1-3)GalNAc = molecular target: Gal3S(b1-3)GalNAc
# Summary of the method: as §1
# Gal3S(b1-3)GlcNAc = molecular target: Gal3S(b1-3)GlcNAc
# Summary of the method: as §1
# [4] = molecular target: Gal3S(b1-3)[Fuc(a1-4)]GlcNAc
# Summary of the method: as §1
# Gal3S(b1-4)Glc = molecular target: Gal3S(b1-4)Glc
# Summary of the method: as §1
# Gal3S(b1-4)Glc6S = molecular target: Gal3S(b1-4)Glc6S
# Summary of the method: as §1
# Gal3S(b1-4)GlcNAc = molecular target: Gal3S(b1-4)GlcNAc
# Summary of the method: as §1
# [5] = molecular target: Gal3S(b1-4)[Fuc(a1-3)]Glc6S
# Summary of the method: as §1
# [6] = molecular target: Gal3S(b1-4)[Fuc(a1-3)]GlcNAc
# Summary of the method: as §1
# [7] = molecular target: Gal3S(b1-4)[Fuc(a1-3)]GlcNAc6S
# Summary of the method: as §1
# Gal3S4S(b1-4)GlcNAc = molecular target: Gal3S4S(b1-4)GlcNAc
# Summary of the method: as §1
# Gal3S6S(b1-4)GlcNAc = molecular target: Gal3S6S(b1-4)GlcNAc
# Summary of the method: as §1
# Gal3S6S(b1-4)GlcNAc6S = molecular target: Gal3S6S(b1-4)GlcNAc6S
# Summary of the method: as §1
# Gal4S(b1-4)GlcNAc = molecular target: Gal4S(b1-4)GlcNAc
# Summary of the method: as §1
# Gal4S6S(b1-4)GlcNAc = molecular target: Gal4S6S(b1-4)GlcNAc
# Summary of the method: as §1
# Gal6P(b1-4)GlcNAc = molecular target: Gal6P(b1-4)GlcNAc
# Summary of the method: as §1
# Gal6S(b1-3)GlcNAc = molecular target: Gal6S(b1-3)GlcNAc
# Summary of the method: as §1
# Gal6S(b1-3)GlcNAc6S = molecular target: Gal6S(b1-3)GlcNAc6S
# Summary of the method: as §1
# Gal6S(b1-4)Glc = molecular target: Gal6S(b1-4)Glc
# Summary of the method: as §1
# Gal6S(b1-4)Glc6S = molecular target: Gal6S(b1-4)Glc6S
# Summary of the method: as §1
# Gal6S(b1-4)GlcNAc = molecular target: Gal6S(b1-4)GlcNAc
# Summary of the method: as §1
# Gal6S(b1-4)GlcNAc6S = molecular target: Gal6S(b1-4)GlcNAc6S
# Summary of the method: as §1
# GalNAc(a1-3)Gal = molecular target: GalNAc(a1-3)Gal
# Summary of the method: as §1
# GalNAc(a1-3)GalNAc = molecular target: GalNAc(a1-3)GalNAc
# Summary of the method: as §1
# [8] = molecular target: GalNAc(a1-3)GalNAc(b1-3)Gal(a1-4)Gal(b1-4)Glc
# Summary of the method: as §1
# [9] = molecular target: GalNAc(a1-3)GalNAc(b1-3)Gal(a1-4)Gal(b1-4)GlcNAc
# Summary of the method: as §1
# GalNAc(b1-3)Gal = molecular target: GalNAc(b1-3)Gal
# Summary of the method: as §1
# [10] = molecular target: GalNAc(b1-3)Gal(a1-4)Gal(b1-4)GlcNAc
# Summary of the method: as §1
# [11] = molecular target: GalNAc(b1-3)Gal(a1-4)Gal(b1-4)GlcNAc(b1-3)Gal(b1-4)Glc
# Summary of the method: as §1
# [12] = molecular target: GalNAc(b1-3)Gal(a1-6)Gal(b1-4)Glc
# Summary of the method: as §1
# GalNAc(b1-3)GalNAc = molecular target: GalNAc(b1-3)GalNAc
# Summary of the method: as §1
# GalNAc(b1-3)GlcNAc = molecular target: GalNAc(b1-3)GlcNAc
# Summary of the method: as §1
# GalNAc(b1-4)Gal(b1-4)Glc = molecular target: GalNAc(b1-4)Gal(b1-4)Glc
# Summary of the method: as §1
# GalNAc(b1-4)GlcNAc = molecular target: GalNAc(b1-4)GlcNAc
# Summary of the method: as §1
binder,measurement,setting,value
SAOUHSC 00176 (Staphylococcus aureus) (protein) MSKILKCITLAVVMLLIVTACGPNRSKEDIDKALNKDNSKDKPNQLTMWVDGDKQMAFYKKITDQYTKKTGIKVKLVNIGQNDQLENISLDAPAGKGPDIFFLAHDNTGSAYLQGLAAEIKLSKDELKGFNKQALKAMNYDNKQLALPAIVETTALFYNKKLVKNAPQTLEEVEANAAKLTDSKKKQYGMLFDAKNFYFNYPFLFGNDDYIFKKNGSEYDIHQLGLNSKHVVKNAERLQKWYDKGYLPKAATHDVMIGLFKEGKVGQFVTGPWNINEYQETFGKDLGVTTLPTDGGKPMKPFLGVRGWYLSEYSKHKYWAKDLMLYITSKDTLQKYTDEMSEITGRVDVKSSNPNLKVFEKQARHAEPMPNIPEMRQVWEPMGNASIFISNGKNPKQALDEATNDITQNIKILHPSQNDKKGD,glycan array binding signal (z-score),[1],0.031
same,glycan array binding signal (z-score),[2],0.017
same,glycan array binding signal (z-score),[3],-0.111
same,glycan array binding signal (z-score),Gal(b1-4)GlcNAc6P,-0.161
same,glycan array binding signal (z-score),Gal(b1-6)Gal,-0.04
same,glycan array binding signal (z-score),Gal3S(b1-3)GalNAc,-0.09
same,glycan array binding signal (z-score),Gal3S(b1-3)GlcNAc,-0.12
same,glycan array binding signal (z-score),[4],-0.071
same,glycan array binding signal (z-score),Gal3S(b1-4)Glc,-0.052
same,glycan array binding signal (z-score),Gal3S(b1-4)Glc6S,-0.092
same,glycan array binding signal (z-score),Gal3S(b1-4)GlcNAc,-0.048
same,glycan array binding signal (z-score),[5],-0.09
same,glycan array binding signal (z-score),[6],0.066
same,glycan array binding signal (z-score),[7],0.008
same,glycan array binding signal (z-score),Gal3S4S(b1-4)GlcNAc,-0.1
same,glycan array binding signal (z-score),Gal3S6S(b1-4)GlcNAc,0.043
same,glycan array binding signal (z-score),Gal3S6S(b1-4)GlcNAc6S,-0.079
same,glycan array binding signal (z-score),Gal4S(b1-4)GlcNAc,-0.064
same,glycan array binding signal (z-score),Gal4S6S(b1-4)GlcNAc,-0.092
same,glycan array binding signal (z-score),Gal6P(b1-4)GlcNAc,-0.136
same,glycan array binding signal (z-score),Gal6S(b1-3)GlcNAc,-0.116
same,glycan array binding signal (z-score),Gal6S(b1-3)GlcNAc6S,-0.159
same,glycan array binding signal (z-score),Gal6S(b1-4)Glc,-0.105
same,glycan array binding signal (z-score),Gal6S(b1-4)Glc6S,0.076
same,glycan array binding signal (z-score),Gal6S(b1-4)GlcNAc,-0.104
same,glycan array binding signal (z-score),Gal6S(b1-4)GlcNAc6S,-0.086
same,glycan array binding signal (z-score),GalNAc(a1-3)Gal,-0.109
same,glycan array binding signal (z-score),GalNAc(a1-3)GalNAc,0.009
same,glycan array binding signal (z-score),[8],-0.149
same,glycan array binding signal (z-score),[9],-0.027
same,glycan array binding signal (z-score),GalNAc(b1-3)Gal,-0.081
same,glycan array binding signal (z-score),[10],-0.02
same,glycan array binding signal (z-score),[11],-0.117
same,glycan array binding signal (z-score),[12],-0.142
same,glycan array binding signal (z-score),GalNAc(b1-3)GalNAc,-0.142
same,glycan array binding signal (z-score),GalNAc(b1-3)GlcNAc,-0.169
same,glycan array binding signal (z-score),GalNAc(b1-4)Gal(b1-4)Glc,0.067
same,glycan array binding signal (z-score),GalNAc(b1-4)GlcNAc,-0.042
